Hit rate of the full screen: of about 310,000 compounds, about 2,200 (0.71%) showed an effect of 50% or more. Effects have a minus sign here. The list shows a part of the results.
biological target: human ether-à-go-go-related gene (hERG) potassium channel (human, UniProt Q12809); experiment: primary screen, population patch clamp on CHO cells stably expressing hERG
Sequence (Q12809 whole entry, looked up): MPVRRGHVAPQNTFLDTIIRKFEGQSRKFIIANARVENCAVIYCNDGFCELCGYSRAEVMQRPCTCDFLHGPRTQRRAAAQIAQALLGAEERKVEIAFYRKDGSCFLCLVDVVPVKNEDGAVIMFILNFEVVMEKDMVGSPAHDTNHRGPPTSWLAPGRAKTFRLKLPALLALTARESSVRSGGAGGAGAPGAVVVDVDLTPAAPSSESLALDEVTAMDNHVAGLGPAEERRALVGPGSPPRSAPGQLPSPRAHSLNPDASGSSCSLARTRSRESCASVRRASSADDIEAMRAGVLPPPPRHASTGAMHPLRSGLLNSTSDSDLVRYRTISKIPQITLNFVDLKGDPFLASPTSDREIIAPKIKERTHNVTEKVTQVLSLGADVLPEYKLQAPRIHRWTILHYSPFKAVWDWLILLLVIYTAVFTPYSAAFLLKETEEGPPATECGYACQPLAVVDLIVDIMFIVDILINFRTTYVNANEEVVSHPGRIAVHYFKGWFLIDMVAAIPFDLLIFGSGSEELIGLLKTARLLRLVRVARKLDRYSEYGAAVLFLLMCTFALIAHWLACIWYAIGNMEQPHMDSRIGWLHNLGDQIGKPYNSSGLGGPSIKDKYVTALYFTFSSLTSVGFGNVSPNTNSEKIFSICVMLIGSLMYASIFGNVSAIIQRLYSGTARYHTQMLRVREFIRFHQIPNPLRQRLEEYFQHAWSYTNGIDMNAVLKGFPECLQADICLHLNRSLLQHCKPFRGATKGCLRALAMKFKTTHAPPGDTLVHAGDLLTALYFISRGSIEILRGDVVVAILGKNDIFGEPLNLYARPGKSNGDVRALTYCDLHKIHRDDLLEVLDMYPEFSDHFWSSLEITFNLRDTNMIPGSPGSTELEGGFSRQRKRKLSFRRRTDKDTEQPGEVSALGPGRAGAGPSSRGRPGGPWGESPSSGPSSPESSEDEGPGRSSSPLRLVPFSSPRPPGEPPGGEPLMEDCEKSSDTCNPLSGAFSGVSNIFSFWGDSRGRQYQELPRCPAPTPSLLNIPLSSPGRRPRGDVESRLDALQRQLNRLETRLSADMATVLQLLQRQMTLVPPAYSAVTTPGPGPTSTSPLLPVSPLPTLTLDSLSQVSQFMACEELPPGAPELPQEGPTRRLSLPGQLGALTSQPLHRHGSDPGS

Row | SMILES | hERG current change (%, negative = inhibition) at 1uM
1 | COc1ccccc1C(=O)COC(=O)CNS(=O)(=O)c1ccc(C)c(C)c1 | 15.1%
2 | CCOC(=O)c1ccccc1NC(=O)CSc1nc2ccccc2c(=O)[nH]1 | 4%
3 | COc1nc(NC(C)=O)nc(C)c1Br | -5.53%
4 | O=C(CSc1nnc(-c2ccc3c(c2)OCO3)o1)Nc1ncc(C(F)(F)F)cc1Cl | -0.135%
5 | O=C1NC(=O)C2(CCCc3ccccc32)N1 (stereo not drawn) | 14.5%
6 | NC(=O)CSC1=Nc2ccccc2C2=NC(CCC(=O)NCc3ccc(F)cc3)C(=O)N12 (stereo not drawn) | 15.2%
7 | COCC1CCN(Cc2cn(Cc3ccccc3)nc2-c2cc3ccccc3o2)CC1 | -22.2%
8 | O=C(NN1C(=O)C2C(c3ccccc3)C=CC(c3ccccc3)C2C1=O)c1ccncc1 (stereo not drawn) | 1.31%
9 | Cc1c(N(C)C)c(=O)n(-c2ccccc2)n1C | 13.2%
10 | Cc1cccc(N(CC(=O)NC(C)C)C(=O)CCC(=O)Nc2nccs2)c1 | 11.1%
11 | CCN(CC)S(=O)(=O)c1ccc(NC(=O)c2ccccn2)cc1 | 12.8%
12 | CC(=O)Nc1ccc(N2C(=O)CSC2c2cccc(Br)c2)cc1 (stereo not drawn) | 7.46%
13 | CC(=O)Nc1ccc(Oc2cncc(Cl)c2)nc1 | 11.3%
14 | CCOc1ccccc1NC(=O)c1oc2ccccc2c1NC(=O)C1CC1 | 3.73%
15 | C=CCNC(=O)C1CC=CCC1C(=O)O (stereo not drawn) | 8.78%
16 | CCn1c(C)c(C(C)=O)c(NCc2ccccc2)nc1=S | -0.405%
17 | S=P(N1CC1)(N1CC1)N1CC1 | 14.5%
18 | O=C(NCc1ccc(-n2cccc2)cc1)c1cccc(F)c1 | 14.9%
19 | O=C(CSc1nc2scc(-c3ccccc3)c2c(=O)[nH]1)NC1CCCCC1 | 15.2%
20 | O=C1OCC/C1=C\c1ccc2c(c1)OCO2 | 19%
21 | O=C(NNc1nc2c(F)cc(F)cc2s1)C1=COCCO1 | 16.1%
22 | CCC(C)NC(=O)c1cc(S(=O)(=O)N2CCCCC2)c[nH]1 (stereo not drawn) | 24.2%
23 | Cc1ccc2[nH]c(=O)c(CN(CC3COCCO3)C(=O)Nc3ccccc3F)cc2c1 (stereo not drawn) | -1.51%

Row | SMILES | hERG current change (%, negative = inhibition) at 1uM
24 | O=C1c2ccc3c4c(ccc(c24)C(=O)N1c1ccc(O)cc1)C(=O)N(c1ccc(O)cc1)C3=O | 26.1%
25 | C/C=C(\C)C(=O)NCCN1C2=NC[C@@H](Cc3ccccc3)N2C[C@@H]1Cc1ccc(OC)cc1 | 6.4%
26 | CC(=O)Nc1ccc(NS(=O)(=O)c2cccc3nonc23)cc1 | 20.8%
27 | CCOC(=O)[C@H]1[C@H]2COc3ccc(Cl)cc3[C@@H]2N2C(=O)CN(Cc3ccc(OC)cc3)C(=O)[C@@]12C | 10.5%
28 | CCn1c(=O)c(=O)[nH]c2cc(C(=O)NC(C)c3ccc(S(N)(=O)=O)cc3)ccc21 (stereo not drawn) | 8%
29 | O=C(c1cccc(C(F)(F)F)c1)N1CCc2c([nH]c3ccccc23)C1C(F)(F)F (stereo not drawn) | 2.07%
30 | Cc1ccc(C(=O)NC(=S)Nc2cccnc2Cl)cc1 | 1.74%
31 | CC1CCCN(c2nc3ccccc3nc2C(C#N)S(=O)(=O)c2cccs2)C1 (stereo not drawn) | 3.34%
32 | COC(=O)c1[nH]c(C)c(/C(O)=C2\C(=O)C(=O)N(CCN(C)C)C2c2ccco2)c1C (stereo not drawn) | 6.05%
33 | COc1ccc2nc(SCC(=O)/C(C#N)=C(\C)N)[nH]c2c1 | -10.7%
34 | Cc1ccc(OCC(=O)NNC(=O)C2CCC2)cc1C | 7.97%
35 | CC1=NNC(=O)C1CC(=O)N/N=C/c1sccc1C (stereo not drawn) | 5.52%
36 | Cc1ccc(C)c(NS(=O)(=O)c2ccccc2C)c1 | 4.37%
37 | O=C(NC(Cc1ccccc1)C(=O)O)C1CCN(S(=O)(=O)c2cccc(C(F)(F)F)c2)CC1 (stereo not drawn) | 11.4%
38 | CCOC(=O)c1ccc(COC(=O)c2cc(=O)[nH]c3ccccc23)o1 | -0.15%
39 | Cc1ccc(S(=O)(=O)Nc2c(C)n(C)n(-c3ccccc3)c2=O)cc1C(=O)NCc1ccccc1 | 5.34%
40 | COc1ccc(C(=O)N2CCOC23CCN(c2ncccn2)CC3)cc1 | 1.21%
41 | Cc1nnc(SCC(=O)Nc2nccs2)[nH]c1=O | 8.22%
42 | CCCCNC(=O)CN(c1cccc(Br)c1)S(C)(=O)=O | 0.981%
43 | CCN(CC)c1ccc(N=Cc2c(O)n(Cc3ccco3)c(=O)[nH]c2=O)cc1 | 8.18%
44 | COCCN1CCN(C(=O)C2CCC(=O)N(Cc3ccccc3F)C2)CC1 (stereo not drawn) | 9.05%
45 | O=C(Nc1ccc(F)cc1F)c1ccc(-n2cccn2)c([N+](=O)[O-])c1 | 2.31%
46 | Cc1cccc(S(=O)(=O)N2CCCc3ccccc32)c1 | 22.9%

Row | SMILES | hERG current change (%, negative = inhibition) at 1uM
47 | CCN(CC)C(=O)COc1coc(CN2CCN(c3ccc(F)cc3)CC2)cc1=O | 10.1%
48 | CCS(=O)(=O)n1nc(NCc2cccc(OC)c2)nc1NCc1cccc(OC)c1 | 6.13%
49 | CC(C)CC(=O)C1CCCN(C(=O)c2ccc3oc(Cc4ccccc4)nc3c2)C1 (stereo not drawn) | 11.9%
50 | Cc1cc(C)c2c(NC(N)=S)n[nH]c2n1 | 1.24%
51 | Cc1ccc(C)c(OCCC(=O)OCC(=O)Nc2ccc(Cl)cn2)c1 | 5.38%
52 | O=C1CCC/C1=C\c1ccccc1 | 7.12%
53 | C=CCn1c(SCN2C(=O)c3ccccc3C2=O)nc2ccc(Cl)cc2c1=O | 21.7%
54 | COc1cc(S(=O)(=O)Nc2ccc(Br)cc2)ccc1N | -3.42%
55 | CCC(c1nnnn1CCOC)N1CCN(C(=O)c2ccco2)CC1.Cl (stereo not drawn) | 9.86%
56 | Cc1ccc(C(=O)NNC(=O)Cn2ccc(C(F)(F)F)n2)o1 | 8.93%
57 | C(#CC1CCCC1)c1ccc2c(c1)COc1c3ccccc3nn1-2 | 7.15%
58 | CCCCn1c(N)c(N(CC)C(=O)c2ccc(Cl)c(Cl)c2)c(=O)[nH]c1=O | 12.1%
59 | CN1CCN(C(=O)C2=C[C@H](C3CCCCC3)C[C@H](OCc3ccc(CO)cc3)O2)CC1 | -29.3%
60 | O=C(CCC(=O)OCc1ccc([N+](=O)[O-])cc1)Nc1ccccc1Cl | 12.9%
61 | O=C(NNc1cccc(Cl)n1)C(F)(F)F | 15%
62 | Cc1ccc(-c2ccc(CCC(=O)O)n2NC(=O)c2ccc([N+](=O)[O-])cc2)cc1 | 19.3%
63 | Cc1ccc(C(=O)Nc2nnc(C)s2)cc1 | 14.6%
64 | CN(CCCN1CCOCC1)Cc1nc(-c2ccccc2)no1 | 10%
65 | Cc1ccc(C)c(S(=O)(=O)N2CCCOC2CNC(=O)C(=O)NCCN2CCOCC2)c1 (stereo not drawn) | 15.4%
66 | CC1CC(=O)Nc2ccccc2N1S(=O)(=O)c1cccc(F)c1 (stereo not drawn) | 14.4%
67 | CCCC(C)C(=O)Nc1nnc(C)s1 (stereo not drawn) | 2.72%
68 | Cc1cc(N/C=C(\C#N)S(=O)(=O)c2ccc(Cl)cc2)nc(C)n1 | 9.13%
69 | CCCCN(CCCNC(=O)c1c(C)cc(=O)oc1C)c1ccccc1 | -25.2%

Row | SMILES | hERG current change (%, negative = inhibition) at 1uM
70 | CCOC(=O)c1c(C)[nH]c(C(=O)OCc2ccc([N+](=O)[O-])cc2)c1C | 16.1%
71 | COc1ccc(/C=C/c2onc(C)c2S(=O)(=O)N2CCC(C(=O)N3CCCCCC3)CC2)cc1 | -2.66%
72 | CCN(CC)S(=O)(=O)c1ccc(N2CCOCC2)c(NS(=O)(=O)c2cccs2)c1 | -1.83%
73 | Cc1onc(NC(=O)NC(=O)c2c(F)cccc2Cl)c1Br | 10.4%
74 | CCC(=O)NCCNc1nc2cc(C)c(C)cc2cc1C#N | 8.58%
75 | CCOc1ccccc1C(=O)Nc1ccccc1C(N)=O | 0.927%
76 | CC(=O)N(c1cccc(Br)c1)C1C=CS(=O)(=O)C1 (stereo not drawn) | 10.1%
77 | COC(=O)c1cccc(-n2c(C)cc(C=O)c2C)c1 | 5.95%
78 | COc1cccc(C(=O)NCC(=O)NNc2ncnc(N)c2[N+](=O)[O-])c1 | 12.8%
79 | CCOC(=O)c1sc2ncn(CC(=O)Nc3cc(C)on3)c(=O)c2c1C | 13%
80 | CN(C)CCCN(Cc1ccc2c(c1)OCO2)C(=O)NC1CCCCC1 | -1.49%
81 | CCOC(=O)C(C)Oc1ccsc1C(=O)OC (stereo not drawn) | 8.71%
82 | COC(=O)c1ccc(/C=N/NC(=O)CC(=O)NCC(C)C)cc1 | 18.3%
83 | CN1/C(=C\C(=O)c2cccnc2)C(C)(C)c2ccccc21 | -1.35%
84 | CNC(C(=O)c1ccccc1)C(OC)c1cccc([N+](=O)[O-])c1.[O-][Cl+3]([O-])([O-])O (stereo not drawn) | 11%
85 | Cc1cc(Nc2c(C)n(C)n(-c3ccccc3)c2=O)c2ccccc2n1 | 1.83%
86 | Cc1ccc(C)c(S(=O)(=O)Nc2cc3c4c(c2)CCC(=O)N4CCC3)c1 | 11.5%
87 | CCOC(=O)C1CCN(C/C=C/c2ccccc2)CC1 | 4.64%
88 | COc1cc2c(cc1NC(=O)C(C)N1CCN(S(=O)(=O)c3ccc(C)c(C)c3)CC1)oc1ccccc12 (stereo not drawn) | 20.5%
89 | Cc1ccc(C2C(C#N)=C(N)Oc3cc4c(cc32)OCO4)cc1 (stereo not drawn) | 11.4%
90 | COC(=O)C1=C(c2ccc(-c3ccccc3)c(F)c2)C[C@@H]2CC[C@H]1N2C(=O)NCc1ccc(F)cc1 | 15.5%

From article PMC4336329 (PLoS ONE, 2015)
